Assay results: the supplement of paper PMC11417369
Some of the results follow.

Test system: PF3D7_0420300 AP2 domain 1 (GST-tagged)
Experiment: gcPBM binding intensity (ln(normalized median fluorescence intensity)); higher = stronger DNA binding
Summary of the method: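 Plasmodium falciparum DNA-binding domains carrying a GST tag were expressed in E. coli and applied for 1 h, at about 25 μg on average, to an Agilent 4 × 180k array. The array held primer-extended double-stranded 36-bp intergenic genomic probes together with negative controls, and binding took place in 1× PBS with 1% milk, 0.2 mg/ml BSA, 0.5% salmon testes DNA and 0.03% Triton X-100. An Alexa488 anti-GST antibody detected bound protein, and the array was scanned at 488 nm. Binding intensity is taken as the highest Masliner-normalised natural-log median intensity across replicate spots of either probe orientation.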

Sequence	gcPBM binding intensity (ln)
AATTAATTTATGTTACGTACATAAGTATTATATTTT [XGTACX_site388]	9.22
AGGAAAAATAATTATTCACACAATAAATATATTTGA [CACACA_site5824]	9.18
GTAAAACAGATTTACAGTACACATGTGTTATGTTTT [XGTACX_site2933]	9.5
TTTTTATATTTTATTATTTTTTTTATATAAAAAATT [CACACA_negctrl_site601]	9.05
TTTATATATAAATAATGTACAAAAAATTTTAAAAAG [XGTACX_site7990]	9.07
ATAAAAATATTTGAATGTACTTATAAGATATATATA [XGTACX_site4257]	9.13
GATGTATTCATACATGCACACGTACATATTTAAATA [CACACA_site9299]	9.34
TATTTTAATTTTTGTTGTACGCAAATGTGAGGGCAT [XGTACX_site4663]	9.17
TAAACCAAAAAAAGTAGTACAAATATTATAAAAAAA [XGTACX_site8497]	9.4
AAATCGTGCACGGACACATGCAGTAGCCGAGAATTA [TGCATGCA_site733]	9.26
TGTTTATTTATTTGTGTGCACTCAGATTATATTATA [GTGCAC_site9510]	9.53
GTTCATAAATTAAACACACACACACGGCTGGATACC [CACACA_site7545]	10.1
AGGTAGAAAAAAGACACACACATTAGATATTTATAT [CACACA_site6313]	9.9
AGTATATATACACAAGGGGAATACATATACAAAATT [TGCATGCA_negctrl_site244]	9.49
TGGGTAATACATAATACACACATGTATATGTCGCAT [CACACA_site1125]	9.49
AAATTTATATAATATTGTACATTAAAAATTATATAT [XGTACX_site8009]	9.11
TTTTTAAAAAAGATAAGCGAAAGAATTAATTTTTAA [GTGCAC_negctrl_site197]	8.84
TATGTATAAATATATGCACACATATATATATTTATA [CACACA_site9150]	9.25
AAGTTGTATATTGATTGTACTTGTTTAGGGTTATAG [XGTACX_site2953]	9.42
ATATATATAATAAACACACACATATACATATATGTA [CACACA_site3462]	9.75
AGGTAAAATATACATTGTACATATAATTAATTTATT [XGTACX_site626]	9.27
TATATATATATAATGTGTACACAAATATATATTATA [XGTACX_site8786]	9.22
TATTAACACTTTATAGAAACAAAAAAATAAGCAAAA [XGTACX_negctrl_site295]	9.42

Sequence	gcPBM binding intensity (ln)
TTTGAATTTTTTAACACACACATGTGTGGATATATA [CACACA_site6872]	9.65
ATTATTACACAACGTTGTACATTTCAATATTTTTAT [XGTACX_site5096]	9.52
AAAATAATATATAATTGTACTTTTTTTTTATATATA [XGTACX_site6093]	9.19
TCCTCTTCAATATATATATATTATAAATAAATAAAT [CACACA_negctrl_site1756]	8.95
TTTCTTTTTTTTTAATGTACTTTTTTTATAAAAGGT [XGTACX_site5688]	9.03
TTTTTTCTTAAAATTTGTACATAGTGCAATTTTTTT [XGTACX_site5509]	8.97
TGTACATATATATATATAATAATAGTTATGTTTATT [CACACA_negctrl_site1474]	9.29
TTTTTTTATAGCTAAACACACATAAGAATATATGTT [CACACA_site1099]	9.09
AATATAAATTAATTTACACACTAAAAAATATTTATA [CACACA_site7728]	9.3
ACATACTTTAATATATGTACATAAGAAAAAAAAAAA [XGTACX_site2991]	9.23
TATAAGAATGACAAGTGTACATATCAAATATATTAG [XGTACX_site7113]	9.27
TATTTTTTATATTTATTTATTTAAAGGAGCTTTTCT [GTGCAC_negctrl_site293]	8.96
TATACTAAAAAATACACATGCACATACAATATATAT [TGCATGCA_site1016]	9.77
TTTATTTTGTAGTGTACACATATATATATATATATA [CACACA_site5843]	9.34
TGAGTATTTTTTTAATGTACTTATATTAAAAGGAAA [XGTACX_site6286]	8.78
TATATTTTTTTTCTAGTGCATATTATTAATTAAGTT	9.26
AAAATATTATTTTGTTGTACATATAAAATTTTAAGC [XGTACX_site1866]	8.99
TACAAAATAAGACATGCATGTTATACATATATATTT [TGCATGCA_site321]	9.4
ATATAAAATAGACACGCACACAAAAAAAAAAAAAAA [CACACA_site3522]	9.5
CTATAATATAGGTATACACACATATTATAGAATATT [CACACA_site7696]	9.47
TATGTCAAAAAATAATGTACAAAAAAATTAACATAA [XGTACX_site5463]	9.23
TATATATGGAAAAGGTGTACATTCAATATATATATA [XGTACX_site3167]	9.17
